From the supplement of paper PMC8821664
Where a name gives a salt, the structure may show the parent alone. This is one part of the list. Repeats are few or missing, and single values can be far off.

Test system: Beas-2B AQP5-HiBiT reporter cells
Test: AQP5-HiBiT luminescence relative to vehicle (ratio to vehicle); higher = higher AQP5-HiBiT protein abundance
Conditions: 10 µM; 18 h
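Note: monoclonal Beas-2B line stably carrying CMV promoter-driven AQP5-HiBiT, 5,000 cells per well in 384-well plates, lytic HiBiT plus LgBiT NanoLuc luminescence, FDA-approved drug library screen.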

| Structure (SMILES) | AQP5-HiBiT luminescence |
| --- | --- |
| COc1ccc(C(CN(C)C)C2(O)CCCCC2)cc1 (configuration not stated) [Venlafaxine hydrochloride] | 0.773 |
| NC(=O)C[S+]([O-])C(c1ccccc1)c1ccccc1 (configuration not stated) [Modafinil] | 0.775 |
| COc1ccc(CN(C(=O)[C@@H](N)Cc2c(C)cc(C(N)=O)cc2C)[C@@H](C)c2ncc(-c3ccccc3)[nH]2)cc1C(=O)O [Eluxadoline] | 0.858 |
| CC(C)C[C@H](CN)CC(=O)O [Pregabalin] | 1.06 |
| C[C@]12COC(=O)C[C@@H]1CC[C@@H]1[C@@H]2CC[C@@]2(C)[C@H]1CC[C@]2(C)O [Oxandrolone] | 0.619 |
| CCC(=O)O[C@H]1CC[C@H]2[C@@H]3CCC4=CC(=O)CC[C@]4(C)[C@H]3CC[C@]12C [Testosterone propionate] | 0.969 |
| NC(=O)C[S@@+]([O-])C(c1ccccc1)c1ccccc1 [Armodafinil] | 1.08 |
| C=CCN1CC[C@]23c4c5ccc(O)c4O[C@H]2C(=O)CC[C@@]3(O)[C@H]1C5 [Naloxone hydrochloride] | 1.01 |
| COc1cc2c(c(OC)c1OC)-c1ccc(OC)c(=O)cc1[C@@H](NC(C)=O)CC2 [Colchicine] | 2.65 |
| C[N+]1(C)[C@@H]2C[C@@H](OC(=O)[C@H](CO)c3ccccc3)C[C@H]1[C@@H]1O[C@@H]12 [Methscopolamine] | 0.658 |
| CC[C@@H](c1cccc(O)c1)[C@@H](C)CN(C)C [Tapentadol hydrochloride] | 0.825 |
| C[C@]12CC[C@H]3[C@@H](CC[C@@]45O[C@@H]4C(O)=C(C#N)C[C@]35C)[C@@H]1CC[C@@H]2O [Trilostane] | 0.803 |
| CCCC(C)(COC(N)=O)COC(=O)NC(C)C (configuration not stated) [Carisoprodol] | 0.949 |
| CC[C@@H](C(N)=O)N1CCCC1=O [Levetiracetam] | 0.95 |
| C[N+](C)(C)CCCCCCCCCC[N+](C)(C)C [Decamethonium bromide] | 0.923 |
| C[C@]1(O)CC[C@H]2[C@@H]3CCC4=CC(=O)CC[C@]4(C)[C@@]3(F)[C@@H](O)C[C@@]21C [Fluoxymesterone] | 0.68 |
| CC(C)N(CCC(C(N)=O)(c1ccccc1)c1ccccn1)C(C)C (configuration not stated) [Disopyramide] | 1.07 |
| CCCCCCCCCC(=O)O[C@H]1CC[C@H]2[C@@H]3CCC4=CC(=O)CC[C@@H]4[C@H]3CC[C@]12C [Nandrolone decanoate] | 1.04 |
| CCOC(=O)CC(SP(=S)(OC)OC)C(=O)OCC (configuration not stated) [Malathion] | 0.736 |

| Structure (SMILES) | AQP5-HiBiT luminescence |
| --- | --- |
| COC[C@@H](NC(C)=O)C(=O)NCc1ccccc1 [Lacosamide] | 0.581 |
| Cl[C@H]1[C@H](Cl)[C@@H](Cl)[C@@H](Cl)[C@H](Cl)[C@H]1Cl [Lindane] | 1.11 |
| O=[N+]([O-])O[C@H]1CO[C@H]2[C@@H]1OC[C@H]2O[N+](=O)[O-] [Isosorbide dinitrate] | 1.55 |
| CC(NC(C)(C)C)C(=O)c1cccc(Cl)c1 (configuration not stated) [Bupropion hydrochloride] | 1.2 |
| NCC1(CC(=O)O)CCCCC1 [Gabapentin] | 1.06 |
| C[C@H]1CNCCc2ccc(Cl)cc21 [Lorcaserin] | 0.944 |
| C[N+]1(C)CCCC(OC(=O)C(O)(c2ccccc2)c2ccccc2)C1 (configuration not stated) [Mepenzolate Bromide] | 1.21 |
| COc1ccc2c(c1)[C@]13CCCC[C@@H]1[C@H](C2)N(C)CC3 [Dextromethorphan HBr monohydrate] | 0.89 |
| CC(C)c1cccc(C(C)C)c1O [Propofol] | 1.18 |
| COc1ccc(OC)c(C(O)C(C)N)c1 (configuration not stated) [Methoxamine hydrochloride] | 1.08 |
| C[C@]12Cc3c[nH]nc3C[C@@H]1CC[C@@H]1[C@@H]2CC[C@@]2(C)[C@H]1CC[C@]2(C)O [Stanozolol] | 0.8 |
| C[N+]12CCC(CC1)C(OC(=O)C(O)(c1ccccc1)c1ccccc1)C2 (configuration not stated) [Clidinium bromide] | 0.969 |
| N[C@@H](Cc1ccc(N(CCCl)CCCl)cc1)C(=O)O [Melphalan] | 0.651 |
| C[C@]12CCC(=O)C=C1CC[C@@H]1[C@@H]2CC[C@@]2(C)[C@H]1CC[C@]2(C)O [17-Methyltestosterone] | 1.01 |
| COc1cc([C@@H]2c3cc4c(cc3[C@H](O)[C@H]3COC(=O)[C@H]23)OCO4)cc(OC)c1OC [Podophyllotoxin] | 2.88 |
| CN(C)C(=O)Oc1ccc[n+](C)c1 [Mestinon] | 0.998 |
| CC(C)OC(=O)[C@H](C)N[P@](=O)(CO[C@H](C)Cn1cnc2c(N)ncnc21)Oc1ccccc1 [GS-7340 Tenofovir alafenamide] | 1.07 |
| CN1[C@@H]2C[C@@H](OC(=O)[C@H](CO)c3ccccc3)C[C@H]1[C@@H]1O[C@@H]12 [Scopolamine HBr trihydrate] | 0.921 |
